Experimental data published in paper PMC10726135.
The other results are listed elsewhere or left out. At the low end of the ranking, values are background and their order means little. The protein was read in a cell extract, so binding may be indirect.

Biological target: T1, HNF4alpha2 (COS-7 nuclear extract) (UniProt P41235)
T1 sequence: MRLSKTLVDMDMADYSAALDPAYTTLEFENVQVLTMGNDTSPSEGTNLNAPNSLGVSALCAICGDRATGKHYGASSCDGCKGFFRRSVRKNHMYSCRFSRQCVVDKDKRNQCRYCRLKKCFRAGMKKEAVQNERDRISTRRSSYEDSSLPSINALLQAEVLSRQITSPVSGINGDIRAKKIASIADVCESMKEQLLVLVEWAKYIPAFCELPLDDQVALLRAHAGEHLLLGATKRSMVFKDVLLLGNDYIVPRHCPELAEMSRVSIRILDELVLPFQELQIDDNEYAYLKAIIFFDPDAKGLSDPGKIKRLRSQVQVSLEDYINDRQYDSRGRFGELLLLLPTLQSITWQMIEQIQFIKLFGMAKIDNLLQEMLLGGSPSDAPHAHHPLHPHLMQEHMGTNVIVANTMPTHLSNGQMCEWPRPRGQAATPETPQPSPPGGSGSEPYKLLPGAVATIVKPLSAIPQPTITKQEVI
Assay: protein-binding microarray
Conditions: COS-7 nuclear extract on double-stranded Agilent 4x180k PBM; binding buffer, salt, pH and temperature not given; high values mean tight binding; double strand, one strand shown; sequences stand for … in …GCCTAGGGAGATTAGAGTATCGGTCGA

Question: With CAAAGTCCTAGAGTCCCTATTTGCTTGTGA as the sequence, how does the binding signal (log2 normalized intensity) read?
Answer: 0.906

Question: For CCTCGGCTCGGCCCCAGTCCCCCGGACCAG, which binding signal (log2 normalized intensity) is on record?
Answer: 3.59

Question: How did the binding signal (log2 normalized intensity) turn out when GAATGTGTGATAAGGAACTGTGTAATAAGG was run?
Answer: 1.16

Question: How did the binding signal (log2 normalized intensity) turn out when TTCTTAAACGTATGCCACATCACCTCTGAC was run?
Answer: 0.869

Question: For CTTTTGGTGAGTCTTTGCCCCTGGACTTTG, which binding signal (log2 normalized intensity) is on record?
Answer: 5.15

Question: AAGTGGTGATTTCGTTGAAAGCTGCTTCCC was tested. Which binding signal (log2 normalized intensity) did it give?
Answer: -1.13

Question: With AGGGAATTTCTAGGTTTGATCTTTGCCCTA as the sequence, how does the binding signal (log2 normalized intensity) read?
Answer: 6.85

Question: TAATGAATAAGCACGTTAGAGAAAAAGCCC was tested. Which binding signal (log2 normalized intensity) did it give?
Answer: -1.2

Question: Which binding signal (log2 normalized intensity) does the source give for CCAGGATCAAATACAGAATCAATGCCTGAT here?
Answer: -0.749

Question: With GTGGCCCCGAGATAAGGATTCCTGGAATGT as the sequence, how does the binding signal (log2 normalized intensity) read?
Answer: 1.23

Question: With GTCAGGACAAGGCTCTGGTGGGGAATGCTA as the sequence, how does the binding signal (log2 normalized intensity) read?
Answer: -1.14

Question: How did the binding signal (log2 normalized intensity) turn out when TCCTGCCCCCTGGAGGAGTGAGGGATGTTC was run?
Answer: 1.9

Question: With GGAGACCACTGGTGTAAGCTCTGGAGTCCA as the sequence, how does the binding signal (log2 normalized intensity) read?
Answer: 0.767

Question: Which binding signal (log2 normalized intensity) does the source give for GGAGAATTTCACAAAGGGCAAAGTCCCCTT here?
Answer: 6.34

Question: CAGCCTTTGGACTTTGAACTGCAACATCAG was tested. Which binding signal (log2 normalized intensity) did it give?
Answer: 8.26

Question: For GCAGGCCTGGGGGCAAAGTCAGGTACTGGT, which binding signal (log2 normalized intensity) is on record?
Answer: 0.527

Question: Which binding signal (log2 normalized intensity) does the source give for ACCTTTAGCACCGTAAGAGAGTATTTCCCA here?
Answer: 1.13

Question: For TTCCCTCCTGTGAACTCGCGCCCCAACGGA, which binding signal (log2 normalized intensity) is on record?
Answer: -1.15

Question: How did the binding signal (log2 normalized intensity) turn out when CACTTCGCATTTCCAAAAGAAGAATGTGGC was run?
Answer: 0.393

Question: How did the binding signal (log2 normalized intensity) turn out when GAAGAGTGAGGTCACAGTATTCATTCCCCT was run?
Answer: 1.47

Question: TTCTTATCTTTCTCAAGAGCAGAATCTACA was tested. Which binding signal (log2 normalized intensity) did it give?
Answer: 1.19

Question: For TGACGCTTTAAGTAGGCACTATTATCCCCC, which binding signal (log2 normalized intensity) is on record?
Answer: 3.35

Question: For TGCTCTTATTGATTGCCTTTCATGTACTGT, which binding signal (log2 normalized intensity) is on record?
Answer: 2.49

Question: Which binding signal (log2 normalized intensity) does the source give for ATATGAAAACAAAGGAAACCAAACATTGAA here?
Answer: -1.06

Question: How did the binding signal (log2 normalized intensity) turn out when CAAATAAAGTTTGAGGAGAGTCAAAGGTTA was run?
Answer: 3.24

Question: With CCACACAAACCCAGTTTGCATTTTCATGGA as the sequence, how does the binding signal (log2 normalized intensity) read?
Answer: 0.36

Question: Which binding signal (log2 normalized intensity) does the source give for TGTTTGCACTGAGGAATGGAAGGACCTTGG here?
Answer: 1.53

Question: How did the binding signal (log2 normalized intensity) turn out when TTTGCCCTTTGAGCTTCTGTCTTGGACTGC was run?
Answer: 3.59

Question: TTGCAGACTGGTTCTTGGTCAGCTCCTGGG was tested. Which binding signal (log2 normalized intensity) did it give?
Answer: -0.63

Question: For CAAGAAACCTTTCCCTCTCTCCTGGTTTGG, which binding signal (log2 normalized intensity) is on record?
Answer: 1.5

Question: AGTTTTTCCCCTTGGTGGATTCCGTGGTAA was tested. Which binding signal (log2 normalized intensity) did it give?
Answer: 2

Question: With TGCGCATGTTCCCACGAAACCCTAAACCTG as the sequence, how does the binding signal (log2 normalized intensity) read?
Answer: -1.13

Question: Which binding signal (log2 normalized intensity) does the source give for GAGCTGTGATTGCGCCACTGTACTCCTGTC here?
Answer: -0.13

Question: With CAGTCCCTGTACACGGTTCTTGACCTGTGA as the sequence, how does the binding signal (log2 normalized intensity) read?
Answer: 3.61

Question: With AGCGGCAGCGCCTCCCGGTCACTACAACAA as the sequence, how does the binding signal (log2 normalized intensity) read?
Answer: -1.19

Question: For GGCCTGCAAGCTCCTGGTTGGGGCCTCCCT, which binding signal (log2 normalized intensity) is on record?
Answer: -1.21

Question: TCCCACCGTGTGTGCACTTTAAATTAATCT was tested. Which binding signal (log2 normalized intensity) did it give?
Answer: 0.673

Question: For GGGCTTAATCTTTCCTGCCTGCCGGCTCTG, which binding signal (log2 normalized intensity) is on record?
Answer: -1.12

Question: With GAATGCACCCTTTTGACCACACAGCAAGGC as the sequence, how does the binding signal (log2 normalized intensity) read?
Answer: 0.133

Question: AGGAAGGACATGGTAAAGATGACCAGCGTG was tested. Which binding signal (log2 normalized intensity) did it give?
Answer: -1.08

Question: Which binding signal (log2 normalized intensity) does the source give for CCTTTGGAGGGGAAGCTGGGCAGGCGCCGA here?
Answer: -1.15

Question: GGATTAACCACAGAAATGCCGCTAATGTAT was tested. Which binding signal (log2 normalized intensity) did it give?
Answer: -0.192

Question: CTTTAAACATTCTTCTCAGTGTTTTGGGTC was tested. Which binding signal (log2 normalized intensity) did it give?
Answer: 2.04

Question: For CTCTAAGCACGGCCAGGATTAACCACAGAA, which binding signal (log2 normalized intensity) is on record?
Answer: -1.2

Question: How did the binding signal (log2 normalized intensity) turn out when TCCTAATGCCCAAATGAATAATCCCCTCCT was run?
Answer: 3.67

Question: ACAACTTTCATTGAACTGCTGGGGGTAAAG was tested. Which binding signal (log2 normalized intensity) did it give?
Answer: 0.398

Question: Which binding signal (log2 normalized intensity) does the source give for AACCTTCATCTCTCTTTGTTGACATCTGCT here?
Answer: 0.528

Question: GGTTGCCCAGGGAGAGCTGGACTTTCATCT was tested. Which binding signal (log2 normalized intensity) did it give?
Answer: 4.77

Question: TGCTAACAATGTGATTTATGAAGGGGGGTG was tested. Which binding signal (log2 normalized intensity) did it give?
Answer: -0.919

Question: How did the binding signal (log2 normalized intensity) turn out when TCCTCTCAAAGTCCACCCGGCCAGCAGATG was run?
Answer: 2.46

Question: For GAAGGCCCTGAACTCCCAGCCTCCAAGATG, which binding signal (log2 normalized intensity) is on record?
Answer: 0.413

Question: For TACAGACAGAAGCCAGAGGCAGCAAGGTCA, which binding signal (log2 normalized intensity) is on record?
Answer: -1.06

Question: For TGCCCTTTGGCCCCCAGAGCCCCGTGTCTC, which binding signal (log2 normalized intensity) is on record?
Answer: 4.76

Question: TACTAGCCATTTCGGCACCTTCTACACAGC was tested. Which binding signal (log2 normalized intensity) did it give?
Answer: -0.612

Question: Which binding signal (log2 normalized intensity) does the source give for TCTCTGTAAACTGGCCAGAAGGTCAGAGAT here?
Answer: 1.66

Question: Which binding signal (log2 normalized intensity) does the source give for CTCCTCCCCTTGAGACTTTAATCTCTCCTC here?
Answer: 2.07

Question: For TGGGAAGTCCAAAGTCTGCAGGGTAGGCAG, which binding signal (log2 normalized intensity) is on record?
Answer: 2.39

Question: ATTCTCTGGAAAAGGTCTGCTGTACATATT was tested. Which binding signal (log2 normalized intensity) did it give?
Answer: 1.64

Question: With GAAGAAGTGTTAAGGACAACCGGTAGCACA as the sequence, how does the binding signal (log2 normalized intensity) read?
Answer: -0.995

Question: GCCATCCAGGGCATTGCCGTTCAGGGCCAC was tested. Which binding signal (log2 normalized intensity) did it give?
Answer: -1.16

Question: Which binding signal (log2 normalized intensity) does the source give for GCCTGACTCCCTGACGCCATCTGGCGTCCC here?
Answer: -0.532

Question: Which binding signal (log2 normalized intensity) does the source give for CAGAGGTCAAGGCTGCAGCGAGCCACTGTA here?
Answer: -1.21

Question: With CCCCCATTAGAGGCACACTCTATTATGTAA as the sequence, how does the binding signal (log2 normalized intensity) read?
Answer: 1.9

Question: How did the binding signal (log2 normalized intensity) turn out when ACTCCACATATTGTAGATAATACTGTGTCA was run?
Answer: 0.275

Question: How did the binding signal (log2 normalized intensity) turn out when CATCTTTATCATGTGGTATTAACATGTAAA was run?
Answer: 1.61

Question: TTCAGTCGGCTCTCAGCGGAACTTTCCTCT was tested. Which binding signal (log2 normalized intensity) did it give?
Answer: -1.24

Question: With TTGGGTGGAGGGGAGGTTATCTTGGGGCTG as the sequence, how does the binding signal (log2 normalized intensity) read?
Answer: -1.21

Question: How did the binding signal (log2 normalized intensity) turn out when TTAACAGATGAGGACATTTCAGCAAAGTTC was run?
Answer: -0.483

Question: Which binding signal (log2 normalized intensity) does the source give for ATGCCCTTATCTCATACCTTGCATGCACAA here?
Answer: 0.992

Question: For CATGTGGGTCAACAGACAAATGAAAGAGCT, which binding signal (log2 normalized intensity) is on record?
Answer: -0.927

Question: Which binding signal (log2 normalized intensity) does the source give for AGTTTGAAGCTTAGAGAGAGAAATTGCTTA here?
Answer: -1.13

Question: For TTGAATCCTTATCTGTAGAAGGCAAAGCTT, which binding signal (log2 normalized intensity) is on record?
Answer: -1.16

Question: With TTGACTTTTTGTGGGGGCAGATGTTTCTTT as the sequence, how does the binding signal (log2 normalized intensity) read?
Answer: 2.03
